The text below walks through data of ChEMBL document CHEMBL4888484, “Replenishing the malaria drug discovery pipeline: Screening and hit evaluation of the MMV Hit Generation Library 1 (HGL1) against asexual blood stage Plasmodium falciparum ,using a nano luciferase reporter read-out” (2022).

The whole screen tested about 150,000 compounds, of which about 540 (0.36%) showed an effect of 50% or more. This is one part of the list.

This assay relates to Plasmodium falciparum. Nature of the assay: Primary screen in NF54 nanoGlo assay, in single point, at 2uM, 72h; a lower Z score goes with more inhibition. In kind it is functional, Erythrocyte. The conditions noted are these: timepoint 72 hour.
Take `CCC(CC)(CC(=O)Nc1cccc(CO)c1)C(=O)O`: the “% Inhibition” value is on record as -3% and the Z score amounted to 0.64.

As for `COC1C2CC3CN(C(=O)CCc4nc5ccccc5o4)C1C3C2` (stereo not given), the “% Inhibition” value is recorded as -3% and the Z score came out at 0.64.

On to `Cc1nc(CC(N)=NOCCN2CC3CCC(C2)O3)cs1`, for which the “% Inhibition” value is -16% and the Z score worked out at 1.32.

Regarding `C[C@H](N1CCN(C(=O)NCCOc2cccnc2)CC1)C(F)(F)F`, the “% Inhibition” value was -6% and the Z score was 0.84.

As to `O=C(CN1CCN(c2ccc(C(F)(F)F)nn2)CC1)Nc1ccc(Cl)cc1`, the “% Inhibition” value is -5% and the Z score was 0.67.

As to `CCCc1occc1C(=O)N[C@@H](C)C1(OC)CCC1`, the “% Inhibition” value is -10% and the Z score was 1.31.

Consider `Brc1ccc(-c2csc(N3CC[C@H](c4ccccc4)C3)n2)cc1`, for which the “% Inhibition” value was -10% and the Z score came to 1.33.

Regarding `Cc1ccccc1-c1noc(CN(C)CC(=O)Nc2cccc(C)c2C)n1`, the “% Inhibition” value amounted to 4% and the Z score is listed as -0.42.

On to `CCCCc1nnc(NCc2ccon2)o1`, for which the “% Inhibition” value is reported as -11% and the Z score was 1.27.

On to `CC(=O)Nc1ccc(CNc2nnc(C3CCCCC3)o2)cc1`, for which the “% Inhibition” value was -7% and the Z score turned out to be 0.87.

`O=C1C2CCCC1CC(C(=O)N1CCc3ccccc31)C2` (stereo not given): the “% Inhibition” value is given as -11% and the Z score is 1.29.

Take `Cc1cc(CC(=O)Nc2c(F)cccc2NC2CC2)no1`: the “% Inhibition” value is reported as -5% and the Z score is 0.54.

For `CC(C)(C)n1cc(CN2c3ccccc3CC[C@@H]2CCO)cn1`, the “% Inhibition” value is given as -12% and the Z score turned out to be 2.24.

Take `Cc1ncn(C)c1C(=O)N1CCC(Cn2ccnc2)CC1`: the “% Inhibition” value was -13% and the Z score is 1.39.

With `Cc1nsc(C)c1NC(=O)C(F)F`, the “% Inhibition” value is 0% and the Z score is -0.07.

Take `CC1(C(=O)Nc2cccc(C(=O)NC3CC3)c2)COC1`: the “% Inhibition” value is recorded as -10% and the Z score is given as 1.57.

In the case of `C[C@H]1CCN(C(=O)Nc2ccc(C(F)F)cc2)CCS1(=O)=O`, the “% Inhibition” value is 6% and the Z score was -0.86.

Regarding `CCc1ccc(C(=O)Nc2ccc3c(c2)N(C)C(=O)c2ccccc2O3)cc1`, the “% Inhibition” value was -12% and the Z score was 1.73.

On to `CCCc1nc(C(=O)NCc2cn3cccnc3n2)cs1`, for which the “% Inhibition” value is given as -15% and the Z score stood at 2.92.

Turning to `CCOC(=O)C1=C(c2ccccc2)S/C(=C2/C(=S)C(C)(C)N(C(C)=O)c3cc(OCC)ccc32)S1`, the “% Inhibition” value is given as 7% and the Z score is given as -0.87.

In the case of `Cc1cc(C(=O)N(CC(=O)O)C2CC2)c(C)n1-c1nccs1`, the “% Inhibition” value was found to be 3% and the Z score is -0.53.

`Cn1ccc(C(=O)N2CC[C@@]3(CCCN(CC4CCC4)C3=O)C2)n1`: the “% Inhibition” value is 2% and the Z score is reported as -0.44.

Regarding `Cc1nc(C(=O)N2CC[C@H]2c2cccs2)cs1`, the “% Inhibition” value is recorded as -2% and the Z score came out at 0.38.

Consider `CC[C@H](OC1CCCC1)C(=O)Nc1cccc(C)n1`, for which the “% Inhibition” value is recorded as 1% and the Z score was -0.13.

Regarding `COCCC1(CNC(=O)Nc2ccc(C(=O)OC)nn2)CC1`, the “% Inhibition” value is reported as -18% and the Z score turned out to be 1.62.

With `C[C@H](NC(=O)C1CCC1)C(=O)Nc1nnc(C2CC2)s1`, the “% Inhibition” value is -15% and the Z score is listed as 1.71.

For `COC(=O)[C@H]1CN(Cc2ccc(F)cc2C)CCS(=O)(=O)C1`, the “% Inhibition” value is reported as -17% and the Z score was determined as 2.21.

For `COCc1cc(CC2(NCc3ccc(N(C)C)cc3)COC2)no1`, the “% Inhibition” value came out at 0% and the Z score is on record as 0.01.

Regarding `CN1CCN2[C@@H](C1)CN(Cc1ccccc1)C[C@@]2(C)CO`, the “% Inhibition” value was 20% and the Z score is -3.12.

For `O=C(c1cccs1)N1CCC(CCOc2ccc(F)cc2)CC1`, the “% Inhibition” value is reported as -2% and the Z score is recorded as 0.36.

Regarding `CC(C)[C@H](CCO)NC(=O)CC1CCCCC1`, the “% Inhibition” value is -14% and the Z score is recorded as 2.56.

Consider `CCOc1ccc(NC(=O)Cn2nc3ccc(C(=O)Nc4ccc(C)cc4)cn3c2=O)cc1`, for which the “% Inhibition” value was -8% and the Z score came out at 0.81.

`CC1CCOC1C(=O)NC(c1ccncc1)c1cc2ccccc2o1` (stereo not given): the “% Inhibition” value is recorded as -1% and the Z score is given as 0.11.

For `CO[C@H]1C[C@H]2CN(C(=O)CCn3cnnn3)[C@@H](Cc3ccccc3)C(=O)N2C1`, the “% Inhibition” value is given as -6% and the Z score was 0.96.

On to `C[C@@H](C(=O)Nc1cc(C(F)(F)F)ccc1N1CCOCC1)N(C)Cc1ccc2c(c1)OCO2`, for which the “% Inhibition” value is -13% and the Z score stood at 1.7.

As for `Cc1cc(C(=O)N(CCC(=O)O)CC(C)C)ccc1F`, the “% Inhibition” value was -1% and the Z score is listed as 0.15.

Regarding `CCNC(=O)NC[C@H]1CCN(Cc2cc3ccc(C)cc3nc2O)C1`, the “% Inhibition” value is -2% and the Z score came out at 0.37.

On to `CCOc1nc(C(=O)N2Cc3ccccc3C[C@@H]2CC)co1`, for which the “% Inhibition” value came to 14% and the Z score is listed as -1.82.

Turning to `CCN(CC)CC(=O)N(CC)C1CCCC1`, the “% Inhibition” value was -6% and the Z score is listed as 0.66.

Take `CC(C)c1nccc(CN(CCCO)Cc2ccc(Cl)cc2)n1`: the “% Inhibition” value was 0% and the Z score is 0.07.

`C[C@@H](Cn1cccn1)NC(=O)c1cc(-c2ccc(F)cc2)nc2ncnn12`: the “% Inhibition” value was -22% and the Z score is 4.37.

For `CCn1c(-c2cccc(C#N)c2)nnc1N(Cc1cccc(OC)c1)C[C@H]1CCCO1`, the “% Inhibition” value is -10% and the Z score amounted to 1.51.

In the case of `COC(=O)[C@@H](NC(=O)CC1(c2ccc(OC)cc2)CC(=O)N(C2CCCC2)C1=O)c1ccccc1` (stereo not given in full), the “% Inhibition” value was -14% and the Z score is reported as 1.9.

For `CN1CC[C@H](CNC(=O)c2cc(C(F)F)ncn2)CC1=O`, the “% Inhibition” value is -9% and the Z score is 0.91.

In the case of `c1ccc(-c2nnc(N3CCCNCC3)s2)cc1`, the “% Inhibition” value is recorded as -3% and the Z score was 0.29.

Turning to `O=C1N[C@H]2C[C@@H](C(=O)NC[C@H]3O[C@H](CCOc4cc(-c5ccncc5)ccc41)CC[C@@H]3O)N(Cc1ccccc1)C2`, the “% Inhibition” value stood at 17% and the Z score was -2.6.

Regarding `CN(C(=O)c1cncc(F)c1)c1ncccc1C#N`, the “% Inhibition” value is recorded as -15% and the Z score is reported as 1.95.

For `CC1(C)CN([C@@H](CNCc2ncc[nH]2)c2ccc(Cl)cc2)CCO1`, the “% Inhibition” value is given as -3% and the Z score is on record as 0.41.

For the molecule `COc1ccc(C(Nc2cncc(CN(C)C)n2)[C@H]2C[C@@H](O)C2)cn1` (stereo not given in full), the “% Inhibition” value is listed as -17% and the Z score stood at 1.54.

For `C#CCCC1(CCC(=O)NCc2cccnn2)N=N1`, the “% Inhibition” value is on record as -13% and the Z score amounted to 1.65.

On to `O=C1CCC(C(=O)NCC2CC3c4ccccc4C2c2ccccc23)CN1` (stereo not given), for which the “% Inhibition” value is reported as -5% and the Z score amounted to 0.52.

Consider `O=C(Cn1cnnn1)N(CC1CCC1)c1ccccc1`, for which the “% Inhibition” value was -13% and the Z score is recorded as 1.65.

As for `Clc1ccccc1CNCc1cn(C2CCC2)nn1`, the “% Inhibition” value is -2% and the Z score turned out to be 0.36.

Consider `CCc1cccc2c1N(C(=O)c1oc(C)nc1C)CC2`, for which the “% Inhibition” value is reported as -4% and the Z score is 0.68.

`Cc1ccc(CNC(=O)N2CCC3(CC2)OCC(=O)N3C)c(N2CCCC2)c1`: the “% Inhibition” value was -11% and the Z score was determined as 1.82.
